Laboratory results published in PMC4068158.
Results are given in words; binding and its absence hold for the method and conditions named. Binding seen in cells or lysates may run through a third protein. Some binding calls cover weakened binding; strength is not graded here. For some assays here: Tags and fused reporters may be left off the sequences shown.

Chains of the proteins cited; added tags and fusions are not shown. Lines headed by an entry give the natural chain unless they say otherwise; changes in a name come on top. A line that says so, or that is headed by a name, gives the form on record, which may keep a tag or linker.
Flag-FAF1 F296A (Q9UNN5, form named): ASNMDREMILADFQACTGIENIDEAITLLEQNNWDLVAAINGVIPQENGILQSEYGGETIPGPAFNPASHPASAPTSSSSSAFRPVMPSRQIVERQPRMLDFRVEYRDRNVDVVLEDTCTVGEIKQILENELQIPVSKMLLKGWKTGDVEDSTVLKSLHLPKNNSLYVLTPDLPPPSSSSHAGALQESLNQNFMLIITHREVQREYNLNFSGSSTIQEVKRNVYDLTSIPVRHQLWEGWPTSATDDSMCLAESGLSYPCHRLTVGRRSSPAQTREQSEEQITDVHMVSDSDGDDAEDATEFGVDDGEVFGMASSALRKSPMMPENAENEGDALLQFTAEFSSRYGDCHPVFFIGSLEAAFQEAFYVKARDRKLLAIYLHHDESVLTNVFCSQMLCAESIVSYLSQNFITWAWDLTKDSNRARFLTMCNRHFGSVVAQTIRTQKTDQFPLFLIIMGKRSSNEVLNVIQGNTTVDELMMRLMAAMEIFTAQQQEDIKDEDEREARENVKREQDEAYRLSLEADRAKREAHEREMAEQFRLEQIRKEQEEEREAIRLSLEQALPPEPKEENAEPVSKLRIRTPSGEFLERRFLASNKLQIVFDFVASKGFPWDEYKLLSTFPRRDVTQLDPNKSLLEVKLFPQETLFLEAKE
Flag-FAF1 D295A/F296A/E297A (Q9UNN5, form named): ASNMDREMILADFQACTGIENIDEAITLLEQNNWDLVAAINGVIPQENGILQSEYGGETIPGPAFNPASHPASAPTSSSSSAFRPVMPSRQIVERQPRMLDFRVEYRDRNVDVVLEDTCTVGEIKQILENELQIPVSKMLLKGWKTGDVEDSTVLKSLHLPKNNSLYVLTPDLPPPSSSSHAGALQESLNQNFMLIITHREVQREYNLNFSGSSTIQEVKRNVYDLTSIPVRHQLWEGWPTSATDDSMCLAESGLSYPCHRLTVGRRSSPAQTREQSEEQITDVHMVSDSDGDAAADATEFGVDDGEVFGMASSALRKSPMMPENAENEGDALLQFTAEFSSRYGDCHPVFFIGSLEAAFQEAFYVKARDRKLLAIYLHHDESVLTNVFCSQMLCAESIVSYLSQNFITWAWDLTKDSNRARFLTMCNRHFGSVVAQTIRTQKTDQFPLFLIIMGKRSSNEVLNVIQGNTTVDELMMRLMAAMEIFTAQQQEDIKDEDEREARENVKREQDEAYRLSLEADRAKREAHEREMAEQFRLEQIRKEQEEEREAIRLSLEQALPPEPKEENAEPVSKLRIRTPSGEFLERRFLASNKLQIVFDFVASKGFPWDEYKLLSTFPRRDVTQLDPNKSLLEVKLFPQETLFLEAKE
UniProt O43681: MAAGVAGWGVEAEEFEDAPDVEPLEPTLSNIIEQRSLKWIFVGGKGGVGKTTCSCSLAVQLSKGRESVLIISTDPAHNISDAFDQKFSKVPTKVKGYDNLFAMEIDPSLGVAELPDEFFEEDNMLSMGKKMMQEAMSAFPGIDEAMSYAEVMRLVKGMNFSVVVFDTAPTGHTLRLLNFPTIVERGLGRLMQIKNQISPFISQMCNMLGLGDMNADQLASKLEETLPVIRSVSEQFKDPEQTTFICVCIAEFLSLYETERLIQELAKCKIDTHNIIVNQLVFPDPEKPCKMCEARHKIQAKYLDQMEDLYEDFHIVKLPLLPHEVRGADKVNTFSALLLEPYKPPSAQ
UniProt O95292: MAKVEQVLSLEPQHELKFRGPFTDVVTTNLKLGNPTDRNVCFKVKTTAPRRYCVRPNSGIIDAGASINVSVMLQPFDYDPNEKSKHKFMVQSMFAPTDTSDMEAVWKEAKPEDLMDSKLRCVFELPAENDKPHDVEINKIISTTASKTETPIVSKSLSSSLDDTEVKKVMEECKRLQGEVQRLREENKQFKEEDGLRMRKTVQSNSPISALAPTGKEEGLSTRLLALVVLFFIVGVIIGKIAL

Columns and labels:
Assay in all cases: co-IP; anti-Flag M2 beads on lysates of U2OS cells expressing the Flag-tagged bait (transfected or tetracycline-induced); buffer A (50 mM HEPES/KOH pH 7.2, 5 mM Mg(OAc)2, 70 mM KOAc, 0.2% Triton X-100, 10% glycerol, 0.2 mM EDTA), 4°C, 2 hr; endogenous prey by immunoblot; cells untreated, treated with MG132 or with siRNA (FAF1, p97, ASNA1, luciferase) as indicated
[1] = target: Flag-FAF1 F296A (human) (UniProt Q9UNN5)
[2] = target: Flag-FAF1 D295A/F296A/E297A (human) (UniProt Q9UNN5)
[3] = target: T1, Flag-WDR44 wild type (human) (UniProt Q5JSH3)
T1 sequence: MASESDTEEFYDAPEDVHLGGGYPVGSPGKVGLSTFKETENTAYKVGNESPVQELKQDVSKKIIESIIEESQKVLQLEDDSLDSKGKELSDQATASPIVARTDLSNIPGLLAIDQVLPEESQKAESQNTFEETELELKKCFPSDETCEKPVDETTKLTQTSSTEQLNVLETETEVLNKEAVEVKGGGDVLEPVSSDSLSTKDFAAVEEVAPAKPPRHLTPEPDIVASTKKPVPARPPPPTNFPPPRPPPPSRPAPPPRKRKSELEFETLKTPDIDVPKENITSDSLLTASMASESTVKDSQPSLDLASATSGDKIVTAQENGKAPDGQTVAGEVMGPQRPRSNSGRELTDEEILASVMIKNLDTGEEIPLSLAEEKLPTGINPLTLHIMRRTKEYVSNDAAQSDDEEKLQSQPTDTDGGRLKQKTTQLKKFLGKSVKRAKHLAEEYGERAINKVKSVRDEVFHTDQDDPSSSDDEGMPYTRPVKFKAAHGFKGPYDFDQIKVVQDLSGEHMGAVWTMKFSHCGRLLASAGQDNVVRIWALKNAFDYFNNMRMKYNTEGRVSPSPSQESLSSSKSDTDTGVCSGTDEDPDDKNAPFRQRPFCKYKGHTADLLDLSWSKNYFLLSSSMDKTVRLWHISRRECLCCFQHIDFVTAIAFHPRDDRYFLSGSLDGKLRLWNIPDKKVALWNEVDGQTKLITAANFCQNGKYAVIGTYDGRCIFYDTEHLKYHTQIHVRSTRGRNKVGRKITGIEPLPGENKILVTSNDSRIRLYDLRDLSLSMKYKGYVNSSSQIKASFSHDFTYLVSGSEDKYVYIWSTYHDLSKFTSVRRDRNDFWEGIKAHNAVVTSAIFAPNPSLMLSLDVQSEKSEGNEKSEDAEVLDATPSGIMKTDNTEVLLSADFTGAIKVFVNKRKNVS

[4] = target: Flag-ASNA1 F15A (human) (UniProt O43681)
[5] = target: T2, Flag-WDR44 Δ1-15 (human) (UniProt Q5JSH3)
T2 sequence: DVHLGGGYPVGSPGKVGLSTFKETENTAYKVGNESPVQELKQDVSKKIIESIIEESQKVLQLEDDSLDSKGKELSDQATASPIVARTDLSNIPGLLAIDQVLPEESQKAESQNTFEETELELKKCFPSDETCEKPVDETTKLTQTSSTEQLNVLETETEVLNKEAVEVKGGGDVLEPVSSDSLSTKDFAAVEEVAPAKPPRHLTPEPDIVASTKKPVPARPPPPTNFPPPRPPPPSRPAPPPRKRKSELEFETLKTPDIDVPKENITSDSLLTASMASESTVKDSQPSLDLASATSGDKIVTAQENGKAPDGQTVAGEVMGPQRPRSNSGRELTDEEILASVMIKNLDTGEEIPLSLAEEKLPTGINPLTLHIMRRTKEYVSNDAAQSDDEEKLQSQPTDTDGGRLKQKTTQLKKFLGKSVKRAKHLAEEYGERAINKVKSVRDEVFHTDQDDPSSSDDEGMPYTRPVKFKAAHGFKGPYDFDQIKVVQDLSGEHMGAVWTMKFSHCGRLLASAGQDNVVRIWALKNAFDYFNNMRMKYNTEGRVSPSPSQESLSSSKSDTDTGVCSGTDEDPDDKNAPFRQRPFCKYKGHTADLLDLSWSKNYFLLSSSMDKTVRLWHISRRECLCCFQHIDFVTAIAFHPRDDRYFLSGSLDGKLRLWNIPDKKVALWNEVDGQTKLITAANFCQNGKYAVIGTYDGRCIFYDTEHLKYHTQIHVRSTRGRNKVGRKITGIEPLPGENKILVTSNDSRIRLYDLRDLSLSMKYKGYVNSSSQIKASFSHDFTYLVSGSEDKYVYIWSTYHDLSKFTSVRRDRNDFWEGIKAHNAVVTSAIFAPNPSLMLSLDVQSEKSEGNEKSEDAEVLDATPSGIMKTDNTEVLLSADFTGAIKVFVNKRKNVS

For “endogenous VAPB (human cells) (from UniProt O95292 1-243)”, the binding [1] was “no binding”, the binding [2] was “no binding” and the binding [3] was “binds”. The binding [4] was “no binding” and the binding [5] was “no binding”.
